According to the supplement of paper PMC10126150:
Values marked as one replicate rest on one cluster of the flow cell; about a third of the high ones do not repeat.

test system: ATP; assay: switch fluorescence ratio, 500 uM ATP over buffer (Cy3 cluster intensity, sum of 5 cycles each) (fold (ratio)); higher = stronger signal-on switching upon ATP binding; sequences stand for … in TCGTCGGCAGCGTCAGATGTGTATAAGAGACAGTTTTTTTTTTTTTTTTTTTTTTTTT…TC; settings: aptamer strand: ATP DNA aptamer (quencher-CACCTGGGGGAGTATTGCGGAGGAAGG + anchor), 100 nM annealed; ATP concentration: 500 uM; one replicate
Summary of the method: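 After annealing to 100 nM quencher-labelled ATP aptamer, Cy3-labelled switching-strand clusters on a modified Illumina MiSeq flow-cell were imaged in selection buffer. A second image followed after 15 min with 500 uM ATP at 22 °C, and five such buffer/ATP cycles were done, each separated by NaOH stripping and re-annealing. The fluorescence ratio, averaged per switch-domain sequence, is summed target-cycle over summed buffer-cycle Cy3 intensity per cluster, with clusters outside 100-1000 RFU excluded.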
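Note: ATP exposure 15 min at 22 °C before imaging.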

Sequence	switch fluorescence ratio
ACGCAGTCGA	1.19
CAACATATCT	1.01
ACTCCGGCCG	1.46
CGGCGTACAA	1.02
CGACCTGTCT	1.03
GTCCCACCTT	1.06
GCAACATGAG	0.954
TGATTTTAGC	0.976
AAACCTCCGG	1.11
TTCATACTTT	1.02
CAATATGGA	1
CATACCTTGC	2.7
TAAATATCTG	1.01
CGGGGGTCGC	1
GAACAGGGTA	0.956
CAATTTCCTA	0.984
TGTGTACG	1.02
AATTGAAGG	0.975
ACAGCCTTGA	1
CAGAATCAGA	0.977
ATATGATCTT	0.981
CTTAGACCA	1
AGAGGAGGTA	0.986

Sequence	switch fluorescence ratio
GCCTTTTTGT	0.998
CCCACCGG	1.06
TGTTTATCAC	1.04
CTTTGGGGC	0.995
ATGGCAGTTT	1
TCTCTGAGTG	0.983
CGGCATGTAA	1.03
GGCTTGTTTT	0.985
AGTAAACCCT	1.2
GACACGGAGA	1.02
ATCATATGCG	0.972
TCAAGCAACT	1.16
TGTCAAAGA	0.985
GTTTTAAAAC	1.01
TTTTGGAATC	1.01
CATTATAGAC	1.07
ATAATTTCAG	0.96
TGAAGGACGA	0.969
ACAACCATTT	1.05
TTTTCCTAGC	1
GAAATGGGTC	1
ATACGGTTAT	1.03
ACTACAAACC	1.18

Sequence	switch fluorescence ratio
CTACGACGTC	1.06
ATATGGTCC	0.985
AAATTGTCCA	0.985
GTGCACT	0.992
CTTACTCTAT	1.1
ATTGGACTTA	1.07
TCAATAGATT	1.02
AAATTCATCA	1
TTGAAACTTA	1.03
GCGTCCGAAG	1.32
TCTACGGCAC	2.06
CAAGTGTTGC	1
TGACACGATG	1.02
GCTCGCATCG	1.11
CGAGGTCAGG	1.01
CTACCTCGAT	1.02
TAAGACCTTA	1.07
TTTCCACTGC	1.08
GTGGTTACCC	0.998
TACGGATTGG	0.985
CTTATCGTAT	0.952
ATATGGTGCA	1.05
GGCGGGGACT	1.01

Sequence	switch fluorescence ratio
CGCATGCGTT	1.06
AACAGTGGCG	1.06
TCTTCAAG	1.02
AAGACAATCA	0.989
CATGCTTGAA	1.01
GCGGCGACTG	1
GGGTGCAGAA	1.07
TTAGAGTTCT	1.02
GCGAGTGTGG	1.04
TACGTTCCGG	1.07
CCGGACCTCG	0.992
AAGTAAGATA	0.998
TACAAAAGGC	1
GCTTGAGTAT	0.987
CACATTAAAA	0.989
TTAAGAAGGT	0.961
GGTATGGTTG	0.988
TCAGAACAGA	1.02
AGTCCTTGCC	1.09
GAAGTCCC	0.929
CGTGTTCCGC	0.976
GGCTGCTGGA	1.1
ATTCTACCGT	0.987

Sequence	switch fluorescence ratio
GCATGGCCCT	1.06
TGGCAGTCGC	1.02
CGAAACCTGT	1.11
TAGGCCATTT	0.999
TAACCCGATG	1.01
ACATCGTCCG	1.05
CATCTCCTTT	1.03
TCGAGGAGAC	1.06
CTCTTGAGAC	1.01
TTACTAGAGC	1.03
TGATATCAAA	0.995
TCCTACTGGT	1.03
TGCGCTCAT	1.02
GATATCCGCC	1.73
AAGGGGGTC	0.969
CGCTGGGACG	0.988
CTACCAAATC	1.36
GCGGTGCACG	1
CATGAGATAT	0.961
AGTGAACTCA	1.03
CTACACGCGG	1.05
GGCGCCGGTG	0.985
TGTGAGTTAA	1

Sequence	switch fluorescence ratio
TTCCTTCTTC	1.12
GTTTCTGATC	1.01
TTTATCTTAA	1.01
GAAAAAGAAA	0.923
AAAGTCCTTC	1.07
TACTCGCCG	1.12
GGTACGATGA	0.997
CGTGGTCT	0.987
TTCTCGGCCA	1.14
AACAACGCGT	0.991
AATGTCCAAG	0.989
ATAGGGGCCT	1.03
GGCGTAGGCG	1.02
GAGGATTGAG	1.03
CCGTTCGTTG	1.01
GGAGGCGTTA	1.01
ATCAGGTGGG	1.15
GCGTAGGTTT	0.981
CTGCCGCCGC	3
TGGGGGAC	0.967
TTCTAATTAG	0.966
GTACCTGGAG	1.03
TAGTGTCTCT	1.01

Sequence	switch fluorescence ratio
ACTATAGGGG	1.03
ACGACCCCCG	1.5
TATGAGCGCC	1.02
GTACTACAGC	1.05
AGTTGATGCT	0.991
ATGGGCCTGA	1.03
GACTATTCGT	1.01
TGCGGGACAG	1.03
TTTCTTAGGC	1.03
CCCGATTCCC	1.11
GGGAAGCAGA	0.984
CGAAGTGGCT	0.956
TGGAGCACTA	1.61
GGTGTGTAAC	1.06
ATGGTTTATT	1.01
AAGGCCTAGG	0.966
AGATCCTACG	1.09
CATTATACGT	1.04
GTCCGTGCTT	0.975
CACTGTTTTT	1.01
